{"source": "the supplement of paper PMC10037445", "key": {"RAW-Dual [1]": {"test_system": "RAW-Dual", "assay": "NF-kB SEAP reporter activity, fold change vs agonist alone; higher = enhanced NF-kB activity", "how_it_was_run": "(§1)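 Reporter activity is given as fold change relative to agonist-alone wells. To measure it, 50 nL of library stock was pin-tooled onto RAW-Dual macrophages (50,000 cells/well, DMEM, 384-well plates), a PRR agonist followed 1 h later, and cells stayed at 37 °C, 5% CO2. Twenty hours on, supernatant was assayed for IRF (QuantiLuc luminescence) and NF-κB (QuantiBlue, 620 nm absorbance), and wells under 70% of agonist-control IncuCyte confluency in both mask sets were marked cytotoxic.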"}, "RAW-Dual [2]": {"test_system": "RAW-Dual", "assay": "NF-kB SEAP reporter activity, fold change vs agonist alone; cytotoxicity flag (confluency mask): not cytotoxic; higher = enhanced NF-kB activity", "how_it_was_run": "as §1"}, "RAW-Dual [3]": {"test_system": "RAW-Dual", "assay": "NF-kB SEAP reporter activity, fold change vs agonist alone; cytotoxicity flag (confluency mask): cytotoxic (confluency <70% of control); higher = enhanced NF-kB activity", "how_it_was_run": "as §1"}, "[4]": {"details": "library stock concentration (final ~1000-fold dilution): 10 mM, cytotoxicity flag (confluency mask): not cytotoxic, agonist: Imiquimod (TLR7) […]"}, "[5]": {"details": "library stock concentration (final ~1000-fold dilution): 10 mM, cytotoxicity flag (confluency mask): not cytotoxic, agonist: MPLA (TLR4) […]"}, "[6]": {"details": "agonist: ODN 1826 (TLR9) 0.5 ug/mL"}, "[7]": {"details": "agonist: Pam2CSK4 (TLR2/6) 0.1 ug/mL"}, "[8]": {"details": "agonist: Pam3CSK4 (TLR2/1) 0.1 ug/mL"}, "[9]": {"details": "library stock concentration (final ~1000-fold dilution): 10 mM, cytotoxicity flag (confluency mask): cytotoxic (confluency <70% of control), agonist: Imiquimod (TLR7) […]"}, "[10]": {"details": "library stock concentration (final ~1000-fold dilution): 10 mM, cytotoxicity flag (confluency mask): cytotoxic (confluency <70% of control), agonist: MPLA (TLR4) […]"}}, "note": "The full ranking holds about 2,900 compounds; the median of “NF-kB SEAP reporter activity, fold change vs agonist alone” is about 0.99, and the highest 2% start at about 2.6. This is one part of the list."}
{"smiles": "Cc1cccc(C#Cc2ccccc2)n1", "values": [{"measurement": "NF-kB SEAP reporter activity", "setting": "RAW-Dual [1]; [4]", "value": 1.25}, {"measurement": "NF-kB SEAP reporter activity", "setting": "RAW-Dual [1]; [5]", "value": 1.29}]}
{"smiles": "Cc1cccc(C#Cc2ccccc2)n1", "note": "(library stock concentration (final ~1000-fold dilution): 10 mM)", "values": [{"measurement": "NF-kB SEAP reporter activity", "setting": "RAW-Dual [2]; agonist: LPS (TLR4) 0.1 ug/mL", "value": 1.21}, {"measurement": "NF-kB SEAP reporter activity", "setting": "RAW-Dual [2]; [6]", "value": 1.14}, {"measurement": "NF-kB SEAP reporter activity", "setting": "RAW-Dual [2]; [7]", "value": 0.931}, {"measurement": "NF-kB SEAP reporter activity", "setting": "RAW-Dual [2]; [8]", "value": 1.24}]}
{"smiles": "Cc1cc(Nc2ncnc3ccc(-c4ccc(CNCCS(C)(=O)=O)o4)cc23)ccc1Oc1ccn2ncnc2c1", "values": [{"measurement": "NF-kB SEAP reporter activity", "setting": "RAW-Dual [1]; [4]", "value": 1.08}, {"measurement": "NF-kB SEAP reporter activity", "setting": "RAW-Dual [1]; [5]", "value": 1.53}]}
{"smiles": "Cc1cc(Nc2ncnc3ccc(-c4ccc(CNCCS(C)(=O)=O)o4)cc23)ccc1Oc1ccn2ncnc2c1", "note": "(library stock concentration (final ~1000-fold dilution): 10 mM)", "values": [{"measurement": "NF-kB SEAP reporter activity", "setting": "RAW-Dual [2]; agonist: LPS (TLR4) 0.1 ug/mL", "value": 2.19}, {"measurement": "NF-kB SEAP reporter activity", "setting": "RAW-Dual [2]; [6]", "value": 0.229}, {"measurement": "NF-kB SEAP reporter activity", "setting": "RAW-Dual [2]; [7]", "value": 0.997}, {"measurement": "NF-kB SEAP reporter activity", "setting": "RAW-Dual [2]; [8]", "value": 0.811}]}
{"smiles": "COc1cc(O)c(CC=C(C)C)c(O)c1C(=O)/C=C/c1ccc(O)cc1", "values": [{"measurement": "NF-kB SEAP reporter activity", "setting": "RAW-Dual [1]; [9]", "value": 1.3}, {"measurement": "NF-kB SEAP reporter activity", "setting": "RAW-Dual [1]; [10]", "value": 1.04}]}
{"smiles": "COc1cc(O)c(CC=C(C)C)c(O)c1C(=O)/C=C/c1ccc(O)cc1", "note": "(library stock concentration (final ~1000-fold dilution): 10 mM)", "values": [{"measurement": "NF-kB SEAP reporter activity", "setting": "RAW-Dual [3]; agonist: LPS (TLR4) 0.1 ug/mL", "value": 0.941}, {"measurement": "NF-kB SEAP reporter activity", "setting": "RAW-Dual [3]; [6]", "value": 0.792}, {"measurement": "NF-kB SEAP reporter activity", "setting": "RAW-Dual [3]; [7]", "value": 0.843}, {"measurement": "NF-kB SEAP reporter activity", "setting": "RAW-Dual [3]; [8]", "value": 1.32}]}
{"smiles": "Cc1ccc(Cl)c(Nc2ccccc2C(=O)O)c1Cl", "values": [{"measurement": "NF-kB SEAP reporter activity", "setting": "RAW-Dual [1]; [4]", "value": 0.962}, {"measurement": "NF-kB SEAP reporter activity", "setting": "RAW-Dual [1]; [5]", "value": 0.997}]}
{"smiles": "Cc1ccc(Cl)c(Nc2ccccc2C(=O)O)c1Cl", "note": "(library stock concentration (final ~1000-fold dilution): 10 mM)", "values": [{"measurement": "NF-kB SEAP reporter activity", "setting": "RAW-Dual [2]; agonist: LPS (TLR4) 0.1 ug/mL", "value": 0.956}, {"measurement": "NF-kB SEAP reporter activity", "setting": "RAW-Dual [2]; [6]", "value": 1.01}, {"measurement": "NF-kB SEAP reporter activity", "setting": "RAW-Dual [2]; [7]", "value": 0.977}, {"measurement": "NF-kB SEAP reporter activity", "setting": "RAW-Dual [2]; [8]", "value": 0.816}]}
{"smiles": "CCCN(CCC)C(=O)C1=Cc2ccc(-c3ccc(C(=O)N4CCCC4)cc3)cc2N=C(N)C1", "values": [{"measurement": "NF-kB SEAP reporter activity", "setting": "RAW-Dual [1]; library stock concentration (final ~1000-fold dilution): 1 mM, cytotoxicity flag (confluency mask): not cytotoxic, agonist: Imiquimod (TLR7) […]", "value": 1.22}, {"measurement": "NF-kB SEAP reporter activity", "setting": "RAW-Dual [1]; library stock concentration (final ~1000-fold dilution): 1 mM, cytotoxicity flag (confluency mask): not cytotoxic, agonist: MPLA (TLR4) […]", "value": 1.82}]}
{"smiles": "CCCN(CCC)C(=O)C1=Cc2ccc(-c3ccc(C(=O)N4CCCC4)cc3)cc2N=C(N)C1", "note": "(library stock concentration (final ~1000-fold dilution): 1 mM)", "values": [{"measurement": "NF-kB SEAP reporter activity", "setting": "RAW-Dual [2]; agonist: LPS (TLR4) 0.1 ug/mL", "value": 2.58}, {"measurement": "NF-kB SEAP reporter activity", "setting": "RAW-Dual [2]; [6]", "value": 1.07}, {"measurement": "NF-kB SEAP reporter activity", "setting": "RAW-Dual [2]; [7]", "value": 1.16}, {"measurement": "NF-kB SEAP reporter activity", "setting": "RAW-Dual [2]; [8]", "value": 1.26}]}
{"smiles": "O=C(c1cn(Cc2cncn2Cc2ccc(Br)cc2)cc1-c1cccc2ccccc12)N1CCOCC1", "note": "(library stock concentration (final ~1000-fold dilution): 10 mM)", "values": [{"measurement": "NF-kB SEAP reporter activity", "setting": "RAW-Dual [2]; agonist: LPS (TLR4) 0.1 ug/mL", "value": 2.82}, {"measurement": "NF-kB SEAP reporter activity", "setting": "RAW-Dual [2]; [6]", "value": 1.54}, {"measurement": "NF-kB SEAP reporter activity", "setting": "RAW-Dual [2]; [7]", "value": 0.96}, {"measurement": "NF-kB SEAP reporter activity", "setting": "RAW-Dual [2]; [8]", "value": 1.16}]}
{"smiles": "O=C(c1cn(Cc2cncn2Cc2ccc(Br)cc2)cc1-c1cccc2ccccc12)N1CCOCC1", "values": [{"measurement": "NF-kB SEAP reporter activity", "setting": "RAW-Dual [1]; [4]", "value": 1.35}, {"measurement": "NF-kB SEAP reporter activity", "setting": "RAW-Dual [1]; [5]", "value": 1.46}]}
{"smiles": "O=C1Nc2ccc(I)cc2C1=Cc1cc(Br)c(O)c(Br)c1", "note": "(library stock concentration (final ~1000-fold dilution): 10 mM)", "values": [{"measurement": "NF-kB SEAP reporter activity", "setting": "RAW-Dual [3]; agonist: LPS (TLR4) 0.1 ug/mL", "value": 1.75}, {"measurement": "NF-kB SEAP reporter activity", "setting": "RAW-Dual [3]; [6]", "value": 1.19}, {"measurement": "NF-kB SEAP reporter activity", "setting": "RAW-Dual [3]; [7]", "value": 1.56}, {"measurement": "NF-kB SEAP reporter activity", "setting": "RAW-Dual [3]; [8]", "value": 2.03}]}
{"smiles": "O=C1Nc2ccc(I)cc2C1=Cc1cc(Br)c(O)c(Br)c1", "values": [{"measurement": "NF-kB SEAP reporter activity", "setting": "RAW-Dual [1]; [9]", "value": 1.68}, {"measurement": "NF-kB SEAP reporter activity", "setting": "RAW-Dual [1]; [10]", "value": 1.56}]}
{"smiles": "CCc1cc2c(cc1N1CCC(N3CCOCC3)CC1)C(C)(C)c1[nH]c3cc(C#N)ccc3c1C2=O.Cl", "note": "(library stock concentration (final ~1000-fold dilution): 2 mM)", "values": [{"measurement": "NF-kB SEAP reporter activity", "setting": "RAW-Dual [2]; agonist: LPS (TLR4) 0.1 ug/mL", "value": 1.71}, {"measurement": "NF-kB SEAP reporter activity", "setting": "RAW-Dual [2]; [6]", "value": 1.17}, {"measurement": "NF-kB SEAP reporter activity", "setting": "RAW-Dual [2]; [7]", "value": 1.15}, {"measurement": "NF-kB SEAP reporter activity", "setting": "RAW-Dual [2]; [8]", "value": 1.15}]}
{"smiles": "CCc1cc2c(cc1N1CCC(N3CCOCC3)CC1)C(C)(C)c1[nH]c3cc(C#N)ccc3c1C2=O.Cl", "values": [{"measurement": "NF-kB SEAP reporter activity", "setting": "RAW-Dual [1]; library stock concentration (final ~1000-fold dilution): 2 mM, cytotoxicity flag (confluency mask): not cytotoxic, agonist: MPLA (TLR4) […]", "value": 1.31}]}
{"smiles": "CC(C)(C)c1[nH]cnc1C=c1[nH]c(=O)c(=Cc2ccccc2)[nH]c1=O", "values": [{"measurement": "NF-kB SEAP reporter activity", "setting": "RAW-Dual [1]; [4]", "value": 2.47}, {"measurement": "NF-kB SEAP reporter activity", "setting": "RAW-Dual [1]; [5]", "value": 2.5}]}
{"smiles": "CC(C)(C)c1[nH]cnc1C=c1[nH]c(=O)c(=Cc2ccccc2)[nH]c1=O", "note": "(library stock concentration (final ~1000-fold dilution): 10 mM)", "values": [{"measurement": "NF-kB SEAP reporter activity", "setting": "RAW-Dual [2]; agonist: LPS (TLR4) 0.1 ug/mL", "value": 6.1}, {"measurement": "NF-kB SEAP reporter activity", "setting": "RAW-Dual [2]; [6]", "value": 3.37}, {"measurement": "NF-kB SEAP reporter activity", "setting": "RAW-Dual [2]; [7]", "value": 2.02}, {"measurement": "NF-kB SEAP reporter activity", "setting": "RAW-Dual [2]; [8]", "value": 2.3}]}
